Assay results reported in publication PMC4336329 (PLoS ONE, 2015).
The whole screen tested about 310,000 compounds, of which about 2,200 (0.71%) showed an effect of 50% or more. The effect is printed as a negative number. The list shows a part of the results.

These molecules were tested against human ether-à-go-go-related gene (hERG) potassium channel (human, UniProt Q12809) (assay: primary screen, population patch clamp on CHO cells stably expressing hERG).
Sequence of human ether-à-go-go-related gene (hERG) potassium channel (Q12809 whole entry, looked up): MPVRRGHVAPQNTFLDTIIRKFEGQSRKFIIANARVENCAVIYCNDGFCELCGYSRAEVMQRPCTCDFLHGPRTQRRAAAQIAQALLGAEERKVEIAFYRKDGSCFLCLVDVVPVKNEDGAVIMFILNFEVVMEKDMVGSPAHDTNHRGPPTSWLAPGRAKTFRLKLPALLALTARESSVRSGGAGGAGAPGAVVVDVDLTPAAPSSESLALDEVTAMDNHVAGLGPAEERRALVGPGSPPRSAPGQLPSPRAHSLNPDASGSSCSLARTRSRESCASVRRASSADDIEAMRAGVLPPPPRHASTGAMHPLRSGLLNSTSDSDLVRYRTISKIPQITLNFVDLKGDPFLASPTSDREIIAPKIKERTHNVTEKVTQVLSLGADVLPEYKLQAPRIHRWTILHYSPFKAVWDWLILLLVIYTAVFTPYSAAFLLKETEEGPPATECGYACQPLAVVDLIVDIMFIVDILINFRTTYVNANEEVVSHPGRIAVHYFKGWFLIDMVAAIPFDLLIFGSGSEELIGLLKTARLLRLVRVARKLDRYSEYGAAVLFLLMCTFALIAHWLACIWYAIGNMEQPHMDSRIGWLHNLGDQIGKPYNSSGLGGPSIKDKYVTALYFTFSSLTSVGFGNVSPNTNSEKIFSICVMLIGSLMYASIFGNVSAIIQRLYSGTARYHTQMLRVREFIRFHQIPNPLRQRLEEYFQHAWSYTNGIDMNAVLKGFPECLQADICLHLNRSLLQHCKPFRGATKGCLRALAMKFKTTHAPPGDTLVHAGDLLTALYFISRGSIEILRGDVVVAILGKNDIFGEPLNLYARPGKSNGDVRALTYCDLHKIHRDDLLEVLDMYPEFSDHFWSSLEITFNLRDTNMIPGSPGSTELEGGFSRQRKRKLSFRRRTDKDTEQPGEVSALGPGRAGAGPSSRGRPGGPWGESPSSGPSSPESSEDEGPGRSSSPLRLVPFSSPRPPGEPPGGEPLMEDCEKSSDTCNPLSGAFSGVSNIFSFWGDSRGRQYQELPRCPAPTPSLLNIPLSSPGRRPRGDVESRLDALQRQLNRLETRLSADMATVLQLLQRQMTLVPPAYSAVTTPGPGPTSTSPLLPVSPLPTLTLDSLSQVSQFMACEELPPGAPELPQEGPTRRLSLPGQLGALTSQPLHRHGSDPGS

Row | SMILES | hERG current change (%, negative = inhibition) at 1uM [%]
1 | NC1=NN=C(N2N=C(c3ccco3)CC2(O)C(F)(F)F)n2ncnc2C1 (centres unmarked) | 11.4
2 | CCOc1ccc(N2CC(C(=O)Nc3ccc4c(c3)OCO4)CC2=O)cc1 (centres unmarked) | 7.31
3 | CCOC(=O)C1CCCN(C(=O)c2cc(-c3ccccc3)nc3ccccc23)C1 (centres unmarked) | 6.61
4 | Cc1cccn2c(=O)c3cc(C(N)=S)c(=N)n(CCCOC(C)C)c3nc12 | -77.8
5 | CCOC(=O)CSCc1cn2cc(Cl)ccc2n1 | 0.388
6 | CCCNC(=S)NC1CC2CCC(C1)N2Cc1ccccc1 (centres unmarked) | 4.46
7 | COc1cccc(-c2noc(C3CCCN(C(=O)Cc4ccccc4)C3)n2)c1 (centres unmarked) | -3.22
8 | CSc1nc2sc3c(c2c(=O)n1C1CCCCC1)CCN(C)C3 | -1.02
9 | Cc1ccc(NC(=S)NNC(=O)Cn2nc(C(F)F)cc2C(F)F)cc1 | 13.6
10 | CN(C)S(=O)(=O)c1ccc(Cl)c(C(=O)NC2CCN(Cc3ccccc3)C2)c1 (centres unmarked) | 14.8
11 | CCOC(=O)c1cnn2c(N)c(C#N)nnc12 | 0.333
12 | CCOc1ccc(N2CC(C(=O)NCCc3ccc(F)cc3)CC2=O)cc1 (centres unmarked) | -22.2
13 | CCOC(=O)c1c(N)sc(C(O)(C(F)(F)F)C(F)(F)F)c1-c1ccc(OC)cc1OC | 12.3
14 | CCn1c(SCC(=O)N2CCCc3ccccc32)nnc1-c1c[nH]c2ccccc12 | 2.46
15 | CCc1noc(C)c1C(=O)NCCc1ccccc1 | 4.84
16 | COc1cccc(NC(=O)CN2C(=O)CSc3ccc(S(=O)(=O)N4CCOCC4)cc32)c1 | 10.6
17 | CCOC(=O)c1cc(S(=O)(=O)NCc2ccc3c(c2)OCO3)cn1C | 15.9
18 | CCN(CC)S(=O)(=O)c1ccc(/C=C/C(=O)OCC(=O)N(C(C)C)C(C)C)cc1 | 10.3
19 | CN(C)CCNC(=O)c1cccn(Cc2cccc(C(F)(F)F)c2)c1=O | 3.81

Row | SMILES | hERG current change (%, negative = inhibition) at 1uM [%]
20 | CC(C)OC(=O)CC(NC(=O)OC(C)(C)C)c1ccccc1 (centres unmarked) | 16.5
21 | COC(=O)C1=CN(CCOC23CC4CC(CC(C4)C2)C3)C=C(C(=O)OC)C1c1ccsc1 | 10.8
22 | CCc1nnc(NC(=O)c2ccc(S(=O)(=O)N(CCOC)CCOC)cc2)s1 | 18.2
23 | CCc1ccc(NC(=O)Cn2c(=O)n(CCC(=O)NC3CCN(Cc4ccccc4)CC3)c(=O)c3ccccc32)cc1 | 8.47
24 | CC1CCN(C(=O)CCNS(=O)(=O)c2ccc(Cl)cc2)CC1 | 5.65
25 | COc1cc(SC)ccc1C(=O)NCCOc1ccc(F)cc1 | 8.25
26 | COc1ccccc1NC(=O)C(C)Sc1nc2ccccc2c(=O)n1CC1CCCO1 (centres unmarked) | -4.34
27 | CC(C)c1ccc(OCC(=O)NCc2ccco2)cc1 | 8.06
28 | Nc1nc(-c2ccc(Cl)cc2)cc(C(F)(F)F)n1 | 8.68
29 | COc1ccccc1C(=O)NCCC(=O)NCCCSc1ccccc1 | 2.39
30 | Cc1ccc(S(=O)(=O)N2CCN(C(=O)N3CCOCC3)CC2)cc1C | 5.1
31 | S=C1NC2CCCCC2N1 (centres unmarked) | 16.5
32 | CCOC(=O)C1C(=O)CC(C)(O)C(C(=O)OCC)C1c1ccc(N(CC)CC)cc1 (centres unmarked) | 13.3
33 | Cc1cc(N=Nc2ccccc2)c(NCC(O)C(O)C(O)CO)cc1C (centres unmarked) | 7.55
34 | N/C(Cc1ccc([N+](=O)[O-])cc1)=N\OC(=O)Cc1ccccc1 | -6.85
35 | Cc1ccc(C2CC(c3ccc(Br)cc3)=NN2C(=O)CSC2=NN3CCCC(=O)N=C3S2)cc1 (centres unmarked) | 15.8
36 | COc1ccc2c(CC(=O)Nc3ccc(N4CCOCC4)cc3)coc2c1 | 8.67
37 | Cc1cccc(NC(=O)CSc2nnc([C@@H](N)Cc3c[nH]c4ccccc34)o2)c1C.Cl | 1.52
38 | COc1ccccc1N(Cc1cc(=O)[nH]c2ccccc12)C(C)=O | 13.8

Row | SMILES | hERG current change (%, negative = inhibition) at 1uM [%]
39 | CS(=O)(=O)N1CCC(c2noc(-c3ccc(C(F)(F)F)cc3)n2)CC1 | 6.26
40 | Cc1ccc(NC(=O)NNC(=O)c2snnc2C)cc1 | 3.35
41 | CCCCC1(Cc2cccc([N+](=O)[O-])c2)C(=O)N(c2ccccc2)N(c2ccccc2)C1=O | 13.7
42 | CCOc1ccccc1N1CCN(C(=O)c2ccccc2)CC1 | 12.6
43 | CC(=O)N1SC(N)=NC1c1ccccc1 (centres unmarked) | 0.475
44 | O=C(COc1ccc(Cl)cc1Cl)Nc1ccc(CN2CCOCC2)cc1 | 10.8
45 | CC(=O)Cn1cnc2c(cnn2-c2ccc(C)c(C)c2)c1=O | 7.47
46 | CCc1ccc(S(=O)(=O)Nc2cc3c(cc2N2CCOCC2)n(C)c(=O)c(=O)n3C)cc1 | 0.298
47 | O=C(CC1S/C(=N/N=C/c2cccs2)NC1=O)Nc1ccc(Cl)c(Cl)c1 (centres unmarked) | 11.9
48 | CN(CCN1CCOCC1)Cc1nc(-c2ccccc2)no1 | 2.84
49 | CC(=O)NC(=S)Nc1ccccc1F | 12.4
50 | CCOc1ccc(S(=O)(=O)N2CCCCC2)cc1NC(=O)Cc1cccs1 | 9.9
51 | CCN(CC)c1ccc(NC(=O)CN2C(=O)NC3(CCc4ccccc43)C2=O)cc1 (centres unmarked) | 4.96
52 | Cc1ccc(CN2CCN(C/C(Cl)=C/c3ccccc3)CC2CCO)o1 (centres unmarked) | 7.23
53 | NNC(=S)NCc1ccco1 | 12.5
54 | Cc1ccc(/C=C2\SC(=S)N(CCC(=O)NNC(=O)c3ccccc3O)C2=O)cc1 | 7.29
55 | CC(C)[C@H](NC(=O)[C@H](Cc1ccccc1)n1c(=O)[nH]c2ccccc2c1=O)C(=O)N1CCC[C@@H]1C(=O)O | 9.63
56 | COc1ccc(/C=C/c2nnc(NC(=O)CSc3ccc(Cl)cc3)s2)cc1 | 2.18
